{
  "source": "PubChem BioAssay AID1508642",
  "about": "(National Center for Advancing Translational Sciences (NCATS), 2021)",
  "note": "Hit rate of the full screen: of about 43,000 compounds, about 200 (0.47%) were called active. Inconclusive results (about 12%) are left out. Calls follow the shape of the dose curve; as a rule, active = well fitted cell-killing curve with a large enough effect; inconclusive = small, poorly fitted or top-dose-only effect, or effect the other way; inactive = flat fitted curve, though single readings scatter. Some of the results follow. % is scaled to controls: 0 for no effect and ±100 for the full control effect.",
  "data": [
    {"assay": "Cell viability qHTS assay in S16 Pmp22-F2sN cells; also: nearly all actives have a fitted effect of over 65% in size", "conditions": "S16 Pmp22-F2sN Schwann cells (luciferase reporters placed in the Pmp22 gene) viability, CellTiter-Glo, 24 h; series mostly up to 57.5 µM; activity change, negative = cytotoxicity: at the top concentration", "how_it_was_run": "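Luminescence from CellTiter-Glo, read by CCD camera after a 15 min room-temperature incubation, served as the viability signal. Reporter Schwann cells (S16 Pmp22-F2sN) had been treated with pin-transferred compounds for 24 h at 37C.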", "values": [
      {"compound": "COc1ccc(C(=O)c2oc3ccccc3c2NC(=O)COc2cccc(C)c2)cc1", "activity change, negative = cytotoxicity": "inactive: 11.4%"},
      {"compound": "COc1ccc(-c2ccc3c(N)c(C(=O)Nc4ccc(C)cc4C)sc3n2)cc1OC", "activity change, negative = cytotoxicity": "inactive: -18.6%"},
      {"compound": "COc1ccc(S(=O)(=O)NCC(c2ccco2)N2CCN(c3ccccc3F)CC2)cc1OC", "note": "(configuration not stated)", "activity change, negative = cytotoxicity": "inactive: -4.68%"},
      {"compound": "CC(C)c1nc2ccc(C(=O)NCc3ccc(F)cc3)cc2o1", "activity change, negative = cytotoxicity": "inactive: 11.7%"},
      {"compound": "Cn1c2c(c(=O)n(C)c1=O)C(c1cc(Br)ccc1F)CC(=O)N2", "note": "(configuration not stated)", "activity change, negative = cytotoxicity": "inactive: 0.0344%"},
      {"compound": "CCc1ccccc1NS(=O)(=O)c1ccc(-c2coc(C)n2)cc1", "activity change, negative = cytotoxicity": "inactive: -26.1%"},
      {"compound": "Cc1oc2ncnc(N3CCCCC3)c2c1C(=O)Nc1cccc(Cl)c1C", "activity change, negative = cytotoxicity": "inactive: -1.58%"},
      {"compound": "Cc1ccc2[nH]c(CSc3nnc(NC(=O)COc4ccccc4C)s3)cc(=O)c2c1", "activity change, negative = cytotoxicity": "inactive: -22.8%"},
      {"compound": "COc1ccc(Nc2cc(C(=O)NCCCN(C)c3ccccc3)c3ccccc3n2)c(OC)c1", "activity change, negative = cytotoxicity": "inactive: -0.446%"},
      {"compound": "COc1ccc(NC(=O)CC2C(=O)N(c3ccc(OC)cc3)C(=O)N2C2CCCCC2)cc1", "note": "(configuration not stated)", "activity change, negative = cytotoxicity": "inactive: -2.01%"},
      {"compound": "Cc1ccc(Nc2cc(=O)[nH]c(=O)[nH]2)cc1C", "activity change, negative = cytotoxicity": "inactive: -0.493%"},
      {"compound": "COc1cccc(C(=O)N2CC(=O)Nc3ccc(C)cc3C2c2ccc(F)cc2)c1OC", "note": "(configuration not stated)", "activity change, negative = cytotoxicity": "inactive: 2.05%"},
      {"compound": "COc1ccc(OC)c(CNC(=O)CCc2c(C)nc3c(c2C)c(=O)n(C)c(=O)n3C)c1", "activity change, negative = cytotoxicity": "inactive: 4.38%"},
      {"compound": "Cc1ccc2oc(=O)c(-c3nc4ccc(C)cc4[nH]3)cc2c1", "activity change, negative = cytotoxicity": "inactive: -8.44%"},
      {"compound": "COc1ccc(Cl)cc1NC(=O)CSc1nnc(C)n2c1cc1sccc12", "activity change, negative = cytotoxicity": "inactive: 8.66%"},
      {"compound": "CCCOc1ccc(CNC(=O)C(C)n2nc(C)n3c(cc4occc43)c2=O)cc1", "note": "(configuration not stated)", "activity change, negative = cytotoxicity": "inactive: 8.66%"},
      {"compound": "Cc1ccc(C(=O)N2c3ncnn3C3(CCCCC3)[C@@H]3CCCC[C@@H]32)cc1", "activity change, negative = cytotoxicity": "inactive: -12.2%"},
      {"compound": "CCC(C)NC(=O)Cn1c(=O)n(CCCC(=O)NCc2ccc(C)cc2)c(=O)c2ccccc21", "note": "(configuration not stated)", "activity change, negative = cytotoxicity": "inactive: 6.55%"},
      {"compound": "Cc1cn2c(=O)cc(COc3cc(C)c(Cl)c(C)c3)nc2s1", "activity change, negative = cytotoxicity": "inactive: -1.16%"},
      {"compound": "CCOC(=O)C1CCN(c2cc3c(cc2NC(=O)c2ccc(OC)c(OC)c2)n(C)c(=O)n3C)CC1", "activity change, negative = cytotoxicity": "inactive: 2.23%"},
      {"compound": "CC1CCCCN1S(=O)(=O)c1ccc(F)c(C(=O)Nc2ccccc2C(F)(F)F)c1", "note": "(configuration not stated)", "activity change, negative = cytotoxicity": "inactive: -10.2%"},
      {"compound": "Cc1cc(Cl)ccc1NS(=O)(=O)c1ccc2c(c1)CCN2S(C)(=O)=O", "activity change, negative = cytotoxicity": "inactive: -11.3%"},
      {"compound": "Cc1cc(=O)n(Cc2cccc(Br)c2)c2c1c(C)nn2-c1ccccc1", "activity change, negative = cytotoxicity": "inactive: 17.4%"},
      {"compound": "Cc1cccc(CNC(=O)Cc2csc3ccccc23)c1", "activity change, negative = cytotoxicity": "inactive: 6.72%"},
      {"compound": "COc1ccc(S(=O)(=O)N2CCN(Cc3nc4ccc(C)cc4o3)CC2)cc1OC", "activity change, negative = cytotoxicity": "inactive: 0.68%"},
      {"compound": "CCOc1cc2sc(N3CCC(C(=O)Nc4ccc(C(C)C)cc4)CC3)nc2cc1Br", "activity change, negative = cytotoxicity": "inactive: 0.0556%"},
      {"compound": "COc1ccc(CCNC(=O)Cc2c(C)c3c(cc(C)c4c(C)c(C)oc43)oc2=O)cc1OC", "activity change, negative = cytotoxicity": "inactive: 8.02%"}
    ]}
  ]
}
